Laboratory results taken from paper PMC9326220.
No constants are given. Whether binding was seen depends on the method and setting. Binding seen in cells or lysates may run through a third protein. Some entries that bind do so weakly or less than the wild type. Where a sequence is shown, tags or fusion partners need not be part of it. Blank lines part the entries; values can stand above or below the molecule they belong to.

The chains behind the UniProt entries cited, without tags or fusion partners. Residues count along the entry.
UniProt P97772, residues 21-1199: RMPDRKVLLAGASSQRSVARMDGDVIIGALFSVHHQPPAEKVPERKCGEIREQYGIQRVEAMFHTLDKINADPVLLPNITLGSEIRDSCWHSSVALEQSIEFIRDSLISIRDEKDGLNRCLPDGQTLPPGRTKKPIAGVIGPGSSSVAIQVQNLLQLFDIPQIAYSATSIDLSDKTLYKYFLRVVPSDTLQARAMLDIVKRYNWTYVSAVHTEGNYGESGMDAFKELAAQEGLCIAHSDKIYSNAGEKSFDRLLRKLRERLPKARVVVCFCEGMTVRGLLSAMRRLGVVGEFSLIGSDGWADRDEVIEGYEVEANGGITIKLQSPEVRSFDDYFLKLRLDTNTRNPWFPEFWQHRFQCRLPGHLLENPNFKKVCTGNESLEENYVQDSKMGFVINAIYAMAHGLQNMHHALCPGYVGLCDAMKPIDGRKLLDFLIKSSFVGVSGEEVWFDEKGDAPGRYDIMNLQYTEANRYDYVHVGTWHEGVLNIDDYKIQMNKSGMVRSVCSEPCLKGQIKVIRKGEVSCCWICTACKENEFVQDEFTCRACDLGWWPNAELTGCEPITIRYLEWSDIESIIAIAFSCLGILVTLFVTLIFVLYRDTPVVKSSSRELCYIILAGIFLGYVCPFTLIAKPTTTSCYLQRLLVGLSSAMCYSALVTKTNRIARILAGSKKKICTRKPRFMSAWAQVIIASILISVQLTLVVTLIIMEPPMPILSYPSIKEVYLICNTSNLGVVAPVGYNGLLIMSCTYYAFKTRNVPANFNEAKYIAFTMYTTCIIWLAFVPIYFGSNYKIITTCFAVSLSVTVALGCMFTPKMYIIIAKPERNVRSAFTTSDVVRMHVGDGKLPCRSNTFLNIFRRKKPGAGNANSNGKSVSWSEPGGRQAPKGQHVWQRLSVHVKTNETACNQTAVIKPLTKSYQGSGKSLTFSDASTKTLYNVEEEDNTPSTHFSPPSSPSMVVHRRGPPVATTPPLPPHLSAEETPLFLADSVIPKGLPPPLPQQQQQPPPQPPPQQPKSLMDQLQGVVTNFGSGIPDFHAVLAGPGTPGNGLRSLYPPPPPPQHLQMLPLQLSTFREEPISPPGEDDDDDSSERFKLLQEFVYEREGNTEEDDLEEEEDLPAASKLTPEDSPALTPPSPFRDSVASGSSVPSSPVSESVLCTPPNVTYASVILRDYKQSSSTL

How the values were obtained:
Test in all cases: co-IP; transiently transfected HEK293 cells lysed in NETT buffer (50 mM Tris-HCl, 150 mM NaCl, 0.1 mM EDTA, 1% Triton X-100); supernatant with mouse anti-Myc, anti-EGFP or anti-Flag antibody overnight at 4°C, protein A/G agarose 4 h, 5 washes; immunoblot; normal mouse IgG and tag-only vector as controls
[1] = molecular target: T1, EGFP-ABM (antibiotic biosynthesis monooxygenase domain of NECAB2) (mouse) (UniProt Q91ZP9)
T1 sequence: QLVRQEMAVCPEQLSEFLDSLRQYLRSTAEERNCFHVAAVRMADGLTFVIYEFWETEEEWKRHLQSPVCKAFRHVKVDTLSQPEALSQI

[2] = molecular target: T2, NECAB2-Myc (neuronal calcium-binding protein 2, mouse) (mouse) (UniProt Q91ZP9)
T2 sequence: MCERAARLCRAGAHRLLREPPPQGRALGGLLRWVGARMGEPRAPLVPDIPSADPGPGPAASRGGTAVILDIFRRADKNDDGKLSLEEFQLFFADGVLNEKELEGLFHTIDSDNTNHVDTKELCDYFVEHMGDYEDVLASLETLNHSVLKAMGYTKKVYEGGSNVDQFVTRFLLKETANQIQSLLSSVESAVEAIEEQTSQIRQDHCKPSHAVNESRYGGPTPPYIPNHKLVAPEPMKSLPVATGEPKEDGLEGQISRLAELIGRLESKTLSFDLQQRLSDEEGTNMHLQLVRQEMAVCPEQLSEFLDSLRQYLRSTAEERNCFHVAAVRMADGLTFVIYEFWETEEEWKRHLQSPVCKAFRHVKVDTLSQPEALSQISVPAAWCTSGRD

[3] = molecular target: T3, NECAB2-Flag (mouse) (UniProt Q91ZP9)
T3 sequence: T2 sequence

[4] = molecular target: T4, Flag-ABM (antibiotic biosynthesis monooxygenase domain of NECAB2) (mouse) (UniProt Q91ZP9)
T4 sequence: T1 sequence

binding [1]: no binding
binding [2]: binds
Molecule: mGluR1-mCherry (metabotropic glutamate receptor 1, mouse Grm1) (from UniProt P97772 21-1199)

binding [3]: binds
B1: EGFP-NECAB2 (protein, UniProt Q91ZP9 1-389)
chain: T2 sequence

binding [3]: binds
binding [4]: binds
B2: EGFP-ABM (antibiotic biosynthesis monooxygenase domain of NECAB2) (domain or fragment, UniProt Q91ZP9 289-377)
chain: T1 sequence
